Reference: PubChem BioAssay AID485341 (National Center for Advancing Translational Sciences (NCATS), 2010)
About 1,700 (0.52%) of roughly 330,000 compounds were called active. The shares of active, inactive and inconclusive entries below differ from those in the screen. The call rests on the fitted dose curve; in most records, active means well fitted inhibition curve with a large enough effect; inconclusive means small, poorly fitted or top-dose-only effect; inactive means no such curve, though single readings can be large or run the other way. Where the call is inconclusive, the potency comes from a doubtful curve fit.

Target: Beta-lactamase (Escherichia coli (strain K12)) (UniProt P00811)
Chain of UniProt P00811 (P00811 whole entry, looked up): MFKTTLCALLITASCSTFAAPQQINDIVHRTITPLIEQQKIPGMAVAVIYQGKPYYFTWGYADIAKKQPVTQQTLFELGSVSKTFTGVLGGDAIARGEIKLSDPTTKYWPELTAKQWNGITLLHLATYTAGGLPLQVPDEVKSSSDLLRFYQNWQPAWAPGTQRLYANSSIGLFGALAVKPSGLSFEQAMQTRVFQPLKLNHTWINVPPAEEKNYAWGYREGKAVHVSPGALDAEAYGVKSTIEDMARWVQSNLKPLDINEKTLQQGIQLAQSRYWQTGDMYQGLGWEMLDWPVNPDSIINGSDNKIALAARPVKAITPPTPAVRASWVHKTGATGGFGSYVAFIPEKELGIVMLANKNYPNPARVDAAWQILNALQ
Assay: qHTS Inhibitors of AmpC Beta-Lactamase (assay without detergent); further: nearly all actives have a fitted effect of over 20% in size
Conditions: AmpC nitrocefin hydrolysis, absorbance 480 nm, 0.0001% Triton; series mostly up to 57.1 µM
Method in brief: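 20 mM phosphate pH 7.0 + 0.01% (detergent screen) or 0.0001% Triton X-100; 5.3 nM AmpC reagent; cpd preinc 15 min RT; nitrocefin (800 uM stock) to start; A480 q20 s × 4 min; Activity was normalised to no-enzyme and no-compound control wells.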
Potency means the concentration at half of the fitted maximal effect; tags describe the fitted curve by direction and shape.

SMILES	Potency
C/C(=N\OCC(=O)OCC(=O)NC(=O)c1ccccc1)c1ccc2c(c1)OCO2	inconclusive: 25.1 µM [inhibitor, single point]
COc1ccc(/C=N/NC(=O)c2ccoc2C)cc1CN1CCN(c2ccc(F)cc2)CC1	inactive
CCOC(=O)CCC(=O)N1CCNC(=O)C1	active: 11.2 µM
CCOC(=O)c1c(-c2ccccc2)csc1NC(=S)NC(=O)c1ccccc1	inconclusive: 5.62 µM [inhibitor, single point]
O=C(c1ccco1)N1CCN(/C(=N/S(=O)(=O)c2cccs2)c2ccccc2Cl)CC1	active: 7.08 µM
CCN(C=NC1=NN(c2cccc(C(F)(F)F)c2)CC1)CC	inactive
NS(=O)(=O)c1ccc(CNC(=O)C2CCCCC2)cc1	inactive
O=C(Cc1ccccc1)N/N=C/c1ccc(OCC(=O)Nc2ccccc2)cc1	inconclusive: 0.316 µM [inhibitor, full curve, poor fit]
COc1ccc(NC(=O)COC(=O)c2ccccc2SCC(=O)N2CCCC2)cc1	inconclusive: 28.2 µM [inhibitor, single point]
O=C1NCCC/C1=N/Nc1ccc(F)cc1	inconclusive: 17.8 µM [inhibitor, single point]
O=C1CN(C(=O)CSc2nc3c(cnn3-c3ccccc3)c(=O)[nH]2)c2ccccc2N1	inconclusive: 10 µM [inhibitor, partial curve, poor fit]
CN(C)C(=O)c1cc(-c2ccccc2)no1	inactive
Cc1ccc(OCC(=O)NN2C(=O)c3ccccc3C2=O)c(C)c1	inconclusive: 1.26 µM [inhibitor, partial curve, poor fit]
Cc1cc(C)c(NC(=O)CSc2nc3ccc(NC(=O)CSc4nnnn4-c4ccccc4)cc3s2)c(C)c1	inconclusive: 39.8 µM [inhibitor, single point]
CCC(C)CCN1C(N(C)C)=NC[C@@H]1Cc1ccccc1 (stereo not given in full)	inactive
O=C1NC(=O)N(Cc2ccccc2)C(=O)/C1=C/C=C/c1ccco1	inconclusive: 17.8 µM [inhibitor, partial curve]
O=C(NCCc1cccnc1)C1CCC(=O)N(Cc2ccc(Cl)cc2)C1 (stereo not given)	inactive
COc1ccccc1NS(=O)(=O)c1cccc(C(=O)NCC(c2ccc(F)cc2)N2CCOCC2)c1 (stereo not given)	inconclusive: 35.5 µM [inhibitor, single point]
COc1cc([N+](=O)[O-])ccc1NC(=O)C[n+]1cccc(C)c1	inconclusive: 5.62 µM [inhibitor, single point]
O=C(c1ccco1)n1nc(-c2ccccc2)nc1NCc1ccco1	inconclusive: 20 µM [inhibitor, single point]
